Laboratory results as given in patent publication EP4563146A1 (IRBM S.P.A., priority 2023, dated 2025).

target: ZIKV NS2B-G4SG4-NS3 serine protease (Zika virus, UniProt A0A024B7W1, R1467A/R1531G); test: ZIKV protease inhibition assay; type: biochemical; conditions: not given

| Compound | IC50 [nM] |
| --- | --- |
| N[C@H]1CC[C@H](C[n+]2cc([N-]C(=O)Nc3cc(N4CCC(c5ccccc5)C4=O)cc(C(F)(F)F)c3)on2)CC1 (stereo partly drawn) [Example 132, (3-(((1R,4R)-4-Aminocyclohexyl)methyl)-1,2,3-oxadiazol-3-ium-5-yl)((3-(2-oxo-3-phenylpyrrolidin-1-yl)-5-(trifluoromethyl)-phenyl)carbamoyl)amide] | 100 to 1000 |
| NC[C@H]1CC[C@@H](C[n+]2cc([N-]C(=O)Nc3cc(N4CCC(c5ccccc5)C4=O)cc(C(F)(F)F)c3)on2)CC1 (stereo partly drawn) [Example 133, (3-(((1S,4S)-4-(Aminomethyl)cyclohexyl)-methyl)-1,2,3-oxadiazol-3-ium-5-yl)((3-(2-oxo-3-phenylpyrrolidin-1-yl)-5-(trifluoromethyl)-phenyl)carbamoyl)amide] | < 100 |
| O=C([N-]c1c[n+]([C@H]2CC[C@@H](CNCC(F)(F)F)CC2)no1)Nc1cc(N2CCC(c3ccccc3)C2=O)cc(C(F)(F)F)c1 (stereo partly drawn) [Example 135, ((3-(2-Oxo-3-phenylpyrrolidin-1-yl)-5-(trifluoromethyl)phenyl)carbamoyl)(3-((1S,4S)-4-(((2,2,2-trifluoroethyl)amino)methyl)-cyclohexyl)-1,2,3-oxadiazol-3-ium-5-yl)amide] | 100 to 1000 |
| O=C([N-]c1c[n+](C[C@H]2CC[C@@H](NCC(F)(F)F)CC2)no1)Nc1cc(N2CCC(c3ccccc3)C2=O)cc(C(F)(F)F)c1 (some centres unmarked) [Example 136, ((3-(2-Oxo-3-phenylpyrrolidin-1-yl)-5-(trifluoromethyl)phenyl)carbamoyl)(3-(((1s,4s)-4-((2,2,2-trifluoroethyl)amino)cyclohexyl)methyl)-1,2,3-oxadiazol-3-ium-5-yl)amide] | 100 to 1000 |
| O=C([N-]c1c[n+](C[C@H]2CC[C@H](NCC(F)(F)F)CC2)no1)Nc1cc(N2CCC(c3ccccc3)C2=O)cc(C(F)(F)F)c1 (stereo partly drawn) [Example 137, ((3-(2-Oxo-3-phenylpyrrolidin-1-yl)-5-(trifluoromethyl)phenyl)carbamoyl)(3-(((1R,4R)-4-((2,2,2-trifluoroethyl)amino)-cyclohexyl)methyl)-1,2,3-oxadiazol-3-ium-5-yl)amide] | 100 to 1000 |
| CN(C)C[C@H]1CC[C@@H]([n+]2cc([N-]C(=O)Nc3cc(N4CCC(c5ccccc5)C4=O)cc(C(F)(F)F)c3)on2)CC1 (stereo partly drawn) [Example 138, (3-((1S,4S)-4-((Dimethylamino)methyl)-cyclohexyl)-1,2,3-oxadiazol-3-ium-5-yl)((3-(2-oxo-3-phenylpyrrolidin-1-yl)-5-(trifluoromethyl)-phenyl)carbamoyl)amide] | 100 to 1000 |
| O=C([N-]c1c[n+](C[C@H]2CC[C@@H](CNCC(F)(F)F)CC2)no1)Nc1cc(N2CCC(c3ccccc3)C2=O)cc(C(F)(F)F)c1 (some centres unmarked) [Example 139, ((3-(2-Oxo-3-phenylpyrrolidin-1-yl)-5-(trifluoromethyl)phenyl)carbamoyl)(3-(((1s,4s)-4-(((2,2,2-trifluoroethyl)amino)methyl)cyclohexyl)-methyl)-1,2,3-oxadiazol-3-ium-5-yl)amide] | 100 to 1000 |
| N[C@H]1CC[C@H](C[n+]2cc([N-]C(=O)Nc3cc(N4CC[C@H](c5ccccc5)C4=O)cc(C(F)(F)F)c3)on2)CC1 [Example 143, (3-(((1R,4R)-4-Aminocyclohexyl)methyl)-1,2,3-oxadiazol-3-ium-5-yl)((3-((R)-2-oxo-3-phenylpyrrolidin-1-yl)-5-(trifluoromethyl)-phenyl)carbamoyl)amide] | 100 to 1000 |
| O=C([N-]c1c[n+](C[C@H]2CC[C@H](NCC(F)(F)F)CC2)no1)Nc1cc(N2CC[C@H](c3ccccc3)C2=O)cc(C(F)(F)F)c1 [Example 144, ((3-((R)-2-Oxo-3-phenylpyrrolidin-1-yl)-5-(trifluoromethyl)phenyl)carbamoyl)(3-(((1r,4r)-4-((2,2,2-trifluoroethyl)amino)cyclohexyl)-methyl)-1,2,3-oxadiazol-3-ium-5-yl)amide] | 100 to 1000 |
| O=C([N-]c1c[n+](C[C@H]2CC[C@H](NC(=O)C(F)(F)F)CC2)no1)Nc1cc(N2CC[C@H](c3ccccc3)C2=O)cc(C(F)(F)F)c1 [Example 145, ((3-((R)-2-Oxo-3-phenylpyrrolidin-1-yl)-5-(trifluoromethyl)phenyl)carbamoyl)(3-(((1R,4R)-4-(2,2,2-trifluoroacetamido)cyclohexyl)methyl)-1,2,3-oxadiazol-3-ium-5-yl)amide] | 100 to 1000 |
| CN(CC(F)(F)F)[C@H]1CC[C@H](C[n+]2cc([N-]C(=O)Nc3cc(N4CC[C@H](c5ccccc5)C4=O)cc(C(F)(F)F)c3)on2)CC1 [Example 146, (3-(((1R,4R)-4-(Methyl(2,2,2-trifluoroethyl)-amino)cyclohexyl)methyl)-1,2,3-oxadiazol-3-ium-5-yl)((3-((R)-2-oxo-3-phenylpyrrolidin-1-yl)-5-(trifluoromethyl)phenyl)carbamoyl)amide] | < 100 |
| CN(C)C[C@H]1CC[C@H]([n+]2cc([N-]C(=O)Nc3cc(N4CCC(c5ccccc5)C4=O)cc(C(F)(F)F)c3)on2)CC1 (stereo partly drawn) [Example 148, (3-((1R,4R)-4-((Dimethylamino)methyl)-cyclohexyl)-1,2,3-oxadiazol-3-ium-5-yl)((3-(2-oxo-3-phenylpyrrolidin-1-yl)-5-(trifluoromethyl)-phenyl)carbamoyl)amide] | 100 to 1000 |

same assay, conditions: 1.25 nM enzyme, 10 µM Bz-Nle-KRR-AMC substrate, 25 °C; read-out: Zika - NS3 protease

| Compound | IC50 [nM] |
| --- | --- |
| CN(C)C[C@H]1CC[C@H]([n+]2cc([N-]C(=O)Nc3cc(NC(=O)Cc4ccccc4)cc(C(F)(F)F)c3)on2)CC1 [Example 147, (3-((1R,4R)-4-((Dimethylamino)methyl)-cyclohexyl)-1,2,3-oxadiazol-3-ium-5-yl)((3-(2-phenylacetamido)-5-(trifluoromethyl)phenyl)-carbamoyl)amide] | < 100 |
| COc1ccccc1CC(=O)Nc1cc(NC(=O)[N-]c2c[n+](C3CCC(CN(C)C)CC3)no2)cc(C(F)(F)F)c1 [Example 153, (3-((1R,4R)-4-((Dimethylamino)methyl)-cyclohexyl)-1,2,3-oxadiazol-3-ium-5-yl)((3-(2-(2-methoxyphenyl)acetamido)-5-(trifluoromethyl)-phenyl)carbamoyl)amide] | < 100 |
| CN(C)C[C@H]1CC[C@H]([n+]2cc([N-]C(=O)Nc3cc(NC(=O)CCc4cn(C)c5ccccc45)cc(C(F)(F)F)c3)on2)CC1 [Example 157, (3-((1R,4R)-4-((Dimethylamino)methyl)-cyclohexyl)-1,2,3-oxadiazol-3-ium-5-yl)((3-(3-(1-methyl-1H-indol-3-yl)propanamido)-5-(trifluoromethyl)phenyl)carbamoyl)amide] | < 100 |
| CN(C)CC1CCC([n+]2cc([N-]C(=O)Nc3cc(NC(=O)CCc4cnccn4)cc(C(F)(F)F)c3)on2)CC1 [Example 158, (3-((1R,4R)-4-((Dimethylamino)methyl)-cyclohexyl)-1,2,3-oxadiazol-3-ium-5-yl)((3-(3-(pyrazin-2-yl)propanamido)-5-(trifluoromethyl-)phenyl)carbamoyl)amide] | > 20000 |
| CN(C)CC1CCC([n+]2cc([N-]C(=O)Nc3cc(NC(=O)Cc4ccccc4C(=O)O)cc(C(F)(F)F)c3)on2)CC1 [Example 159, ((3-(2-(2-Carboxyphenyl)acetamido)-5-(trifluoromethyl)phenyl)carbamoyl)(3-((1R,4R)-4-((dimethylamino)methyl)cyclohexyl)-1,2,3-oxadiazol-3-ium-5-yl)amide] | < 100 |
